# The whole screen tested about 310,000 compounds, of which about 2,200 (0.71%) showed an effect of 50% or more. Effects have a minus sign here. The list shows a part of the results.
# Target: human ether-à-go-go-related gene (hERG) potassium channel (human, UniProt Q12809)
# Test: primary screen, population patch clamp on CHO cells stably expressing hERG
# human ether-à-go-go-related gene (hERG) potassium channel, sequence (Q12809 whole entry, looked up): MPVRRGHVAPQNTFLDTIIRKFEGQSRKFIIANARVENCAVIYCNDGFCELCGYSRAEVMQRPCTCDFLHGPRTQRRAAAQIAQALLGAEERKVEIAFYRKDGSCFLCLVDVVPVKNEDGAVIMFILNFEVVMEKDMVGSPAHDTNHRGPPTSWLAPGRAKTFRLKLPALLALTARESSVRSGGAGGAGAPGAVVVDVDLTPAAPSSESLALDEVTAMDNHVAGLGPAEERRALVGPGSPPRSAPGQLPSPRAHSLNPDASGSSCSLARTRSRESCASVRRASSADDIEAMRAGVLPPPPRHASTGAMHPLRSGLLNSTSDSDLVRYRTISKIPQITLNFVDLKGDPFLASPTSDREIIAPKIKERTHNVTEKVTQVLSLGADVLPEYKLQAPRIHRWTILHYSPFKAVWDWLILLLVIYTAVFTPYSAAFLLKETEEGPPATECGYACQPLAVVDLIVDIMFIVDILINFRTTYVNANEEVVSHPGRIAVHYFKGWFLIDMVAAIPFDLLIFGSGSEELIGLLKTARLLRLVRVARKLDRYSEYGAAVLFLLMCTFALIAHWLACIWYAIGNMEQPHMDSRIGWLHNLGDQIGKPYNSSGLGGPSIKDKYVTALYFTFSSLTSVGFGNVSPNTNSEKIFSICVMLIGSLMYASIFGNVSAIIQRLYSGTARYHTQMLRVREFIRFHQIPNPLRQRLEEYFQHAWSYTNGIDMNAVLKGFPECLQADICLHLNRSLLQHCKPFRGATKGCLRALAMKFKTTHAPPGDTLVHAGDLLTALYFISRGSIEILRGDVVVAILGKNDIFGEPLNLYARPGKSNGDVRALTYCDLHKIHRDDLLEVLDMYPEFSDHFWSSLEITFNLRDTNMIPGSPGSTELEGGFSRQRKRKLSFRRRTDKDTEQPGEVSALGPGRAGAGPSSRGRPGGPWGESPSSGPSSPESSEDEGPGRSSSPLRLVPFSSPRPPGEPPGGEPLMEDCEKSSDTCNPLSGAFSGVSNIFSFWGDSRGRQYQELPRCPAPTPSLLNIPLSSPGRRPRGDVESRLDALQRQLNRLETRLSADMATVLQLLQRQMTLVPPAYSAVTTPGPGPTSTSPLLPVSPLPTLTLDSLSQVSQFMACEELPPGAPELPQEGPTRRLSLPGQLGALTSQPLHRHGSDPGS
row,SMILES,"hERG current change (%, negative = inhibition) at 1uM"
1,CC(=O)Nc1ccc(S(=O)(=O)NCCSCc2c(Cl)cccc2Cl)cc1,18.9%
2,CCOC(=O)c1c(NC(=O)CC2Sc3ccc(C(F)(F)F)cc3NC2=O)sc(C)c1C (stereo not shown),12.6%
3,COc1ccc(-c2cc(C)no2)cc1S(=O)(=O)Nc1cccc(C)c1,15.5%
4,CCCCNC(=O)Cn1c2c(c(-c3ccccc3Cl)cc1=O)CCC2,2.56%
5,O=C(OCC(=O)N1CCCC1=O)c1cc(S(=O)(=O)N2CCOCC2)ccc1Cl,1.6%
6,CCOC(=O)[C@H]1[C@H]2COc3ccc(Br)cc3[C@@H]2N2C(=O)c3cc(F)c(F)cc3NC(=O)[C@@]12C,3.49%
7,CCN(CC)C(=O)c1ccc(COc2ccccc2Br)o1,5.54%
8,O=C(CCc1ccccc1)Nc1cc(C(F)(F)F)ccc1Cl,9.41%
9,O=S(=O)(NCC1(N2CCOCC2)CCCCC1)c1ccc(Cl)cc1C(F)(F)F,13.7%
10,Cc1cccn2c(=O)c3cc(C(=O)N4CCCCC4C)sc3nc12 (stereo not shown),17.6%
11,CCCn1c(SCC(=O)N2CCN(CC)CC2)nc2c1c(=O)n(C)c(=O)n2C,15.6%
12,CCOC(=O)CNC(=O)CSc1nnc(-c2cccc(OC)c2)n1CC,8.79%
13,Cc1cc(-c2n[nH]c(=S)n2/N=C/c2cccs2)n[nH]1,8.9%
14,O=C(O)C1C2C=CC(C2)C1C(=O)OCc1ccccc1 (stereo not shown),9.31%
15,COCCCNC(=O)c1c(NC(=O)c2ccccc2)n(Cc2ccccc2)c2nc3ccccc3nc12,13.6%
16,COc1ccccc1C(=O)N1CCN(CCNC(=O)C(=O)Nc2ccc(Br)c(C)c2)CC1,-10.5%
17,COc1ccc(OC)c(C(=O)COC(=O)CNC(=O)C2CCCCC2)c1,12%
18,COc1ccc(-c2nnn(CC(=O)N(Cc3cccs3)C(C)C(=O)NC3CCCC3)n2)cc1OC (stereo not shown),-7.65%
19,CC(C)N(CCn1c(SCC(=O)N2CC(=O)Nc3ccccc32)nc2ccccc2c1=O)C(C)C,-72.5%
20,CCCNC(=O)NC(=O)CSc1ncc(C(F)(F)F)cc1Cl,12.2%
21,Br.CCCCn1c(=N)n(CC(=O)c2ccc(OC)cc2)c2ccccc21,-62.2%
22,CCCn1c(SCC(=O)N2CCCc3ccccc32)nc2c1c(=O)n(C)c(=O)n2C,-2.63%

row,SMILES,"hERG current change (%, negative = inhibition) at 1uM"
1,COC(=O)c1c(N2C(=O)[C@H]3[C@@H](C2=O)[C@]2(C(=O)Nc4c(C)cc(C)cc42)N2CCC[C@@H]32)sc(C)c1C,12.5%
2,CC(C)N=C(Nc1cccnc1)c1ccccc1,15.7%
3,CC(C)Cn1c(/C=C/c2ccccc2)nc2ccccc21,3.22%
4,Cc1c(N=c2scc(-c3ccccc3)n2CCO)c(=O)n(-c2ccccc2)n1C,6.87%
5,COc1ccc(C(=O)N2CCN(c3ccc(NC(=O)Cc4ccccc4)cc3)CC2)cc1,-3.31%
6,CCCc1nc(N2CCN(C)CC2)c2sc(=S)n(-c3ccccc3)c2n1,5.19%
7,CC(C)OC(=O)C(C)Nc1ccc(F)c(Cl)c1 (stereo not shown),13%
8,COc1ccc(-n2c(=O)c3ccccc3c3ccccc3c2=O)cc1,12.4%
9,COc1ccc(S(=O)(=O)NCc2cc(-c3ccccc3Cl)no2)cc1,16.2%
10,Cc1ccc(S(=O)(=O)/C=C2\NC(=O)CS2)cc1,3.73%
11,Cn1cc(C(=O)NP(=O)(N2CCOCC2)N2CCOCC2)c2ccccc21,13.4%
12,Cc1ccc(N2C(=O)N3[C@H](c4cccc(C)c4)[C@@H]4C(=O)N(Cc5ccccc5)C(=O)[C@@H]4[C@]3(C)C2=O)cc1,7.91%
13,CCc1nnc(NC(=O)c2nc3nccc(C)n3n2)s1,4.12%
14,COc1ccc(OCCC(=O)OCC(=O)Nc2cccc(S(=O)(=O)N3CCOCC3)c2)cc1,13.9%
15,O=C(COC(=O)CCOc1ccccc1)NCCC1=CCCCC1,15.8%
16,Clc1ccc(CSc2nnc(-c3c[nH]c4ccccc34)o2)cc1,12.1%
17,Cc1csc(NC(=O)CSc2nc3nc(C)cc(C)n3n2)n1,9.96%
18,Cc1ccc(C(=O)NCC(=O)OCC(=O)Nc2cccc(S(=O)(=O)N3CCCC3)c2)cc1C,-2.74%
19,Br.Cc1nn2cc(-c3ccc(Cl)cc3)nc2s1,2.28%
20,Cc1cc(C(=O)Nc2ccccc2C#N)n(-c2ccccc2)n1,6.6%
21,CC(NC(=O)COc1ccccc1)C(c1ccccc1)N1CCN(C)CC1 (stereo not shown),-4.03%
